The other results are listed elsewhere or left out. Shown are side measurements of this screen, not its main read-out; they come without a call.
Columns and labels:
Assay in all cases: Primary Screen for Target Class Profiling of Small Molecule Inhibitors of Methyltransferases
[1] = target: Glycine N-methyltransferase (Homo sapiens) (UniProt Q14749); settings: purified enzyme, MTase-Glo SAH luminescence; measured here: GNMT inhibition; at 40 µM; stronger effect = lower value
Summary of the method: (§1)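 Each enzyme was reacted with SAM and its substrate, with compounds tested once at 40 uM; SAH formed was read by MTase-Glo luminescence.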

[2] = target: Guanidinoacetate N-methyltransferase (Homo sapiens) (UniProt Q14353); settings: purified enzyme, MTase-Glo SAH luminescence; measured here: GAMT inhibition; at 40 µM; stronger effect = lower value
Summary of the method: as §1

[3] = target: Histamine N-methyltransferase (Homo sapiens) (UniProt P50135); settings: purified enzyme, MTase-Glo SAH luminescence; measured here: HNMT inhibition; at 40 µM; stronger effect = lower value
Summary of the method: as §1

[4] = target: Nicotinamide N-methyltransferase (Homo sapiens) (UniProt P40261); settings: purified enzyme, MTase-Glo SAH luminescence; measured here: NNMT inhibition; at 40 µM; stronger effect = lower value
Summary of the method: as §1

[5] = target: Phenylethanolamine N-methyltransferase (Homo sapiens) (UniProt P11086); settings: purified enzyme, MTase-Glo SAH luminescence; measured here: PNMT inhibition; at 40 µM; stronger effect = lower value
Summary of the method: as §1
% is scaled to controls: 0 for no effect and ±100 for the full control effect.

SMILES | activity change, negative = inhibition [1] [%] | activity change, negative = inhibition [2] [%] | activity change, negative = inhibition [3] [%] | activity change, negative = inhibition [4] [%] | activity change, negative = inhibition [5] [%]
COc1ccc(NC(=O)Cn2nc3n(Cc4ccc(F)cc4)c(=O)c4ccccc4n3c2=O)cc1OC | 3.27 | 0 | 9.56 | 7.46 | 5.5
COc1ccc(CN2C(=O)c3c(NC(C)=O)c4ccccc4n3CC2(C)C(=O)NC2CCCC2)cc1 (stereo not given) | 0.959 | 0 | 5.1 | 6.54 | 4.62
Cn1c(=O)n(C)c2cc(S(=O)(=O)Nc3cc4c(cc3NCc3ccccc3)n(C)c(=O)n4C)ccc21 | -27.2 | -14.5 | -39.9 | -23.2 | -14
CNC(=O)[C@H]1O[C@@H](n2cnc3c(NCc4ccc(I)cc4)nc(Cl)nc32)[C@H](O)[C@@H]1O | -29.1 | -1.97 | -1.31 | -17 | -4.17
C/C=C(/C)C(=O)O[C@H]1C=C(C)C[C@H](OC(=O)c2ccc(O)cc2)C2[C@](O)(C(C)C)CC[C@@]21C (stereo not given in full) | 0 | 7.67 | 9.32 | -10.8 | 2.08
COc1ccc(CN2C(=O)c3cc4occc4n3CC2(C)C(=O)NC2CCC(C)CC2)cc1 (stereo not given) | -3.84 | 3.75 | 2.21 | -9.23 | -1.53
CCC1c2ccc(C)n2CCN1C(=O)Nc1cc(OC)ccc1OC (stereo not given) | -5.18 | 1.68 | 1.98 | 2.55 | -2.47
CC(C)CCn1c(=O)c2ccc(C(=O)NC3CCCC3)cc2n2c(=O)n(CC(N)=O)nc12 | 2.73 | 0.311 | 4.14 | -2.5 | -1.63
CC1CCCCC1NC(=O)C1(C)Cn2c(ccc2-c2ccco2)C(=O)N1Cc1ccccc1 (stereo not given) | -2.39 | 5.01 | 0.364 | 1.27 | -1.66
Cc1ccc(-c2ccnc(N(C)CC3CC(=O)N(C(C)(C)C)C3)n2)c(C)n1 (stereo not given) | -9.02 | -2.45 | -0.491 | -6.39 | -1.61
CCCCN1C(=O)CSc2c(c3ccccc3n2C)C1C(=O)NCc1ccccc1OC (stereo not given) | 8.9 | 0 | 3.96 | -7 | 4.55
O=C(O)CC1(O)C(=O)Nc2ccccc21 (stereo not given) | 1.06 | -0.057 | 6.85 | -9.87 | -4.89
CC1CCC(NC(=O)C2(C)Cn3c(cc4occc43)C(=O)N2CCc2ccccc2)CC1 (stereo not given) | -13.5 | 2.55 | -7.07 | -10.4 | -8.32
CC(C)OCCCN1C(=O)c2cc3sccc3n2CC1(C)C(=O)NC1CCCCC1C (stereo not given) | 0.83 | 1.58 | 2 | 3.89 | -2.86
CCN1C(=O)c2cc(C(=O)NCc3cc(OC)ccc3OC)nn2CC1(C)C(=O)NC1CCCC1 (stereo not given) | 2.78 | 0 | 3.13 | 1.98 | 2.75
CC(C)CCNC(=O)C1(C)Cn2c(cc3ccccc32)C(=O)N1Cc1ccccc1Cl (stereo not given) | 6.13 | 0 | 9.56 | 2.38 | 2.37
COc1cc(OC)cc(C(=O)NCC2CCCN(Cc3cc4ccccc4o3)C2)c1 (stereo not given) | -6.02 | -8.21 | -2.58 | -11 | -6.57
COc1ccc(OC)c(N2C(=O)c3cc4occc4n3CC2(C)C(=O)NC2CCCCCCC2)c1 (stereo not given) | -10.7 | 0 | 1.96 | -8.62 | -1.06
Cn1c(=O)c2ccc(C(=O)NC3CCCC3)cc2n2c(=O)n(Cc3ccc(F)cc3)nc12 | -6.14 | 2.15 | -7.62 | -5.96 | -4.21
Nc1ncnc2c1c(-c1ccc(Oc3ccccc3)cc1)nn2[C@@H]1CCCNC1 | -32.1 | 10.4 | -41.1 | -64.4 | -13.2

SMILES | activity change, negative = inhibition [1] [%] | activity change, negative = inhibition [2] [%] | activity change, negative = inhibition [3] [%] | activity change, negative = inhibition [4] [%] | activity change, negative = inhibition [5] [%]
CCOc1ccc(CNC(=O)CN(C)S(=O)(=O)c2ccc3[nH]c4c(c3c2)CCCC4)cc1OC | 1.13 | 0.936 | 1.27 | -1.88 | -0.335
CC(=O)OC1CCC2(C)C(CCC3(C)C2CC=C2C4CC(C)(C)CCC4(C)CCC23C)C1(C)C(=O)O (stereo not given) | 1.45 | 8.81 | 9.37 | -10.5 | -1.54
CC1(C(=O)NC2CCCCC2)Cn2c(cc3occc32)C(=O)N1Cc1ccccc1 (stereo not given) | -4.7 | 0.297 | -7.17 | -0.989 | -9.64
Cc1ccc(C)c(N2CCN(S(=O)(=O)c3cc4[nH]c(=O)[nH]c4cc3Cl)CC2)c1 | -3.33 | 0.346 | -5.2 | -4.03 | -7.91
CCc1noc(CN(C(=O)c2oc3ccc(C)cc3c2C)C(C)C)n1 | -2.37 | 0.547 | -2.02 | -2.4 | 1.93
COc1ccccc1N1CCN(C(=O)CCc2nnc3n(Cc4ccccc4)c(=O)c4ccccc4n23)CC1 | -12.8 | 1.88 | -9.06 | -11.3 | -10.1
O=C(c1cccn1C1CC1)N1C[C@H](CO)C[C@H](CN2CCCC2)C1 | -7.35 | -6.73 | -2.62 | -10.4 | -19.6
COc1ccc2c(c1)c(CN1C[C@@H](CO)[C@H](c3nc(C)no3)C1)cn2C | -1.11 | -1.12 | 1.57 | -3.8 | 1.09
CC(C(=O)Nc1nccs1)N1CCN(c2nccnc2C#N)CC1 (stereo not given) | -5.12 | -2.45 | -3.03 | -2.86 | -0.165
NC(=O)C1CCN(c2cc(-c3noc([C@@H]4CCCN4Cc4ccc(Cl)cc4)n3)ccn2)CC1 | -7.11 | -4.38 | -3.25 | -3.63 | 14.4
Cc1cc(C)cc(N2C(=O)c3cc4oc(C)cc4n3CC2(C)C(=O)NC2CCCCCC2)c1 (stereo not given) | 2.44 | 0 | 4.37 | 6 | 3.52
Cc1ccccc1CN1C(=O)c2cc3sccc3n2CC1(C)C(=O)NC1CCCCC1C (stereo not given) | 39.2 | 0 | 1.43 | 1.74 | -3.32
CCC1(N2CCN(S(=O)(=O)c3cccs3)CC2)CCN(S(C)(=O)=O)C1 (stereo not given) | -6.96 | -9.65 | -6.16 | -14.5 | -11.3
CCNc1nc(Nc2cc(F)c(C(=O)N3CCOCC3)cc2OC)ncc1C(F)(F)F | 1.19 | -8.65 | 7.97 | -71.8 | -12.1
O=C(NC1CCCCCC1)C1CCc2nnc(-c3ccccn3)n21 (stereo not given) | -5.01 | -13.4 | -4.06 | -20.7 | -10.5
O=C(Nc1ccc(F)cc1)c1c[nH]c2cccnc12 | -9.46 | -12.3 | -12 | -19.7 | -16.6
CN1C(=O)c2cc(C(=O)N3CCN(c4ccccc4)CC3)nn2CC1(C)C(=O)NC1CCCC1 (stereo not given) | 6.15 | 3.1 | 8.94 | 10.9 | 3.89
COc1ccc(CNC(=O)c2cc3n(n2)CC(C)(C(=O)NC2CCCC2)N(C)C3=O)c(OC)c1 (stereo not given) | -3.35 | -1.01 | -2.43 | -4.43 | -0.499
Cc1cc(C)cc(NC(=O)Cn2nc3n(C)c(=O)c4ccc(C(=O)NC5CCCCC5)cc4n3c2=O)c1 | -0.972 | 1.38 | 2.02 | -2.88 | -2.38
Cc1nn(-c2ccccc2)c2c1C(C1CC1)N(C1CCN(Cc3cccc(OC(F)(F)F)c3)CC1)C2=O (stereo not given) | -0.219 | 0.094 | 0.689 | -0.751 | -2.29

SMILES | activity change, negative = inhibition [1] [%] | activity change, negative = inhibition [2] [%] | activity change, negative = inhibition [3] [%] | activity change, negative = inhibition [4] [%] | activity change, negative = inhibition [5] [%]
CCCn1c(=O)c2ccc(C(=O)NC3CCCC3)cc2n2c(=O)n(CC(=O)NC3CCCCC3)nc12 | -0.543 | 0 | 1.72 | 3.53 | 4.65
CC1=NOC2(CCN(Cc3ccc(N(C)C)cc3)C2)C1 (stereo not given) | -5.79 | -4.12 | -3.46 | -8.08 | 0.833
O=C1Nc2ccc(I)cc2/C1=C/c1cc(Br)c(O)c(Br)c1 | -91.3 | -56 | -84.7 | -77.2 | -54.7
Cc1ccccc1CCNC(=O)CCn1ccc2cc(S(=O)(=O)N3CCCC3)ccc21 | -4.02 | 6.22 | -3.83 | -10.7 | 0.43
CC(C)(C)c1cc2n(n1)CC(C)(C(=O)NC1CCCCC1)N(Cc1ccccc1Cl)C2=O (stereo not given) | -9.75 | 1.67 | 5.41 | 0.4 | -2.55
CC1CCN(S(=O)(=O)c2ccc3c(ccn3CC(=O)N3CCc4ccccc4C3)c2)CC1 | -1.11 | 6.08 | -6.72 | 2.82 | -0.195
Cc1ccccc1CNC[C@H]1Cn2c(-c3ccccc3)cnc2CO1 | -15.5 | -2.97 | -23.1 | -17.8 | -11.8
CC(C)(CC(=O)O)CC(=O)N1CCN2C(=O)N(CCc3cccs3)C(=O)[C@H]2C1 | -1.77 | -2.63 | 0.854 | 3.06 | -1.12
COc1ccc(OC)c(C2C(C#N)=C(N)Oc3n[nH]c(-c4ccc5ccccc5c4)c32)c1 (stereo not given) | 0.481 | 7.8 | 9.58 | -3.55 | 6.36
CNC(=O)c1cccc2cc(Oc3ccnc4cc(OCC5(N)CC5)c(OC)cc34)ccc12 | -4.12 | -4.96 | -40.3 | -22.6 | -7.07
COc1cc(C)c(-c2nc(CN3CCOC(CCN)C3)c(C)o2)cc1C (stereo not given) | -6.78 | -7.9 | -3.47 | -4.74 | -9.84
CCCCC(=O)N(C)CC1CCOC1 (stereo not given) | -6.65 | -11.3 | -5.3 | -20.7 | -10.1
CCCCN1C(=O)c2cc(C(=O)NCc3ccc(OC)c(OC)c3)nn2CC1(C)C(=O)NC1CCCC1 (stereo not given) | 7.21 | 1.36 | 4.22 | 7.22 | 7.49
Clc1ccc2c(c1)C1C=CCC1C(c1ccccc1)N2 (stereo not given) | -12.5 | -6.62 | -8.2 | -11.7 | -18.7
COC(=O)c1cc2n(n1)CC(C)(C(=O)NC1CCC(C)CC1)N(c1ccc(C(C)C)cc1)C2=O (stereo not given) | -2.46 | 0 | 6.44 | -1.65 | 0.548
CCCCNC(=O)CCn1ccc2cc(S(=O)(=O)N3CCCC3)ccc21 | 2.63 | 0.279 | 0.899 | 7.8 | 2.2
CC(=O)Nc1c2n(c3ccccc13)CC(C)(C(=O)NC1CCCCCC1)N(C1CCC(C)CC1)C2=O (stereo not given) | 0.405 | 0.845 | 0.447 | -5.98 | 1.11
COc1ccc(CCNC(=O)C2(C)CCOCC2)cc1 | 0.66 | 0.698 | 3.01 | -0.766 | -0.56
CCOC(=O)c1ccc2c(c1)[C@@H]1C=CC[C@@H]1[C@H](c1ccccc1C(F)(F)F)N2 | -4.04 | 3.42 | 0.637 | -6.97 | -5.22
Cc1cccc(CNC(=O)C2(C)Cn3cnc(C(=O)NCc4ccc(OC(C)C)cc4)c3C(=O)N2C2CC2)c1 (stereo not given) | 3.6 | 2.84 | 16.1 | 1.89 | 10.2
